Data on 34 variants can be found in the RNAGym collection of RNA variant scans (doi:10.1093/nar/gkz1192).

Read counts are not given, so values of variants with three or more changes are uncertain.

B1: CPEB3 Ribozyme (parent)
chain: UAACAGGGGGCCACAGCAGAAGCGUUCACGUCGCAGCCCCUGUCAGAUUCUGGUGAAUCUGCGAAUUCUGCUGUAUAUCUC

The data set covers variants of B1. Kind of data set: self-cleavage, relative activity (ratio to wild type); higher = more cleavage; in vitro, sequencing. The gist of the method:
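Relative activity was defined as the cleaved/total read fraction for a variant divided by the same fraction for the unmutated ribozyme. CPEB3 self-cleaving ribozyme libraries were made by rounds of error-prone PCR, barcoded, and transcribed in vitro with T7 RNA polymerase for 5 hours at 37°C, and cleavage ran through transcription plus a 15 min DNase I step before EDTA. Illumina sequencing of template-switched reverse transcripts gave the reads, and DNA sequencing mapped the barcodes. Averages come from three batches, using variants with at least 5 reads.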
For the variant UAACAGGGGGCCACAGCGGAAGCGUUCACGUCGCAGCCCCUGUCCCAUUCUGGUGAAUCUGCGAAUUCUGCUGUAUAUCUC [A18G A45C G46C], the self-cleavage was found to be 0.31.
In the case of UAACAGGGGGCCACAGCGGAGGCGUACACGUCGCAGCCCCAGUCAGAUUCUGGUGAAUCUGCGAAUUCUGCUGCAUAUCUC [A18G A21G U26A U41A U74C] it was 0.04.
The figure for UAACAGGGGGCCACAGCGGAAGCGUUCGCGUCGCAGCCCCUGUCAGAUUCUGGUGAAAAUGCGAAUUCUGCUGUAUAUCUC [A18G A28G U58A C59A] is 0; for UAACAGGGGGCCACAGCGGAAGCGUUCGCGUCGCAGCCCCUGUCAGAUUCUGGUGAAUCUCCGAAUUCUGCUGUAUGUCUC [A18G A28G G61C A77G] it is 0.13; for UAACAGGGGGCCACAGCGGACGCGUUCACGUCGCAGCCCCAGUCAGAUCCUGGUGAAUCUGCGAAUUCAGCUGUAUAUCUC [A18G A21C U41A U49C U69A] it is 0.27.
The figure for UAACAGGGGGCCACAGCGGAAGCGUUCACGUCGCGGCCCCCGUCAGAUUCUGGUGAAUCUGCGAACUCUGCUGUAUAUCUC [A18G A35G U41C U66C] is 0.37.
With UAACAGGGGGCCACAGCGGAGGCGUUCACGUCGCAGCCCCUGUCAGAUUCUGGUGGAUCUGCGAAUUCUGCUGAAUAUCUC [A18G A21G A56G U74A], the self-cleavage worked out at 0.41.
In the case of UAACAGGGGGCCACAGCGGUCGCGUUCACGUCGCAGCCCCUGUCAGAUCCUGGUGGAUCUGCGAAUUCUGCUGUAUAUCUC [A18G A20U A21C U49C A56G] it was 0.29.
The figure for UAACAGGGGGCCACAGCGGAAGCGUUCGAGUCGCAGCCCCUGACAGAUUCUGGUGAAUCUGCGAAUUCUGCUGUAUAUCUC [A18G A28G C29A U43A] is 0.37.
For the variant UAACAGGGGGCCACAGCGGGAGCGUUCACGUCGCAGCCCCUGUCAGAUUCUGGUGAAUCCGCGAAUUCUGCUGUAUAUCUC [A18G A20G U60C], the self-cleavage came out at 0.54.
In the case of UAACAGGGGGCCACAGCGGAGGCGUUCACGUCGCAGCCCCUGUCAGAUUCAGGUGAGUCUGCGAAAUCUGCUGUAUAUCUC [A18G A21G U51A A57G U66A] it was 0.39; in that of UAACAGGGGGCCACAGCGGAAGCGUUCUCGUCGCAGCCCCUGUCAGAUUCUGGUGAAUCUGCGAAUUCUGCUGCAUAUCUC [A18G A28U U74C], 0.61.
Turning to UAACAGGGGGCCACAGCGGAGGCGCUCACGUCGCAGCCCCCGUCAGAUUCUGGUGAAUCUGCGAAUUCAGCAGUAUAUCUC [A18G A21G U25C U41C U69A U72A], the self-cleavage turned out to be 0.04.
The figure for UAACAGGGGGCCACAGCGGAAGCGUUCACGUCGCUGCCCCUGUCUGAUUCUGGUUAAUCUGCGAAUUCUGCCGUAUAUCUC [A18G A35U A45U G55U U72C] is 0.17.
In the case of UAACAGGGGGCCACAGCGGAAGCGUUCGCGUUGCAGCCCCUGUCAGACUCUGGUGAAUCUGCGAACUCUGCUGUAUAUCUC [A18G A28G C32U U48C U66C] it was 0.06.
For the variant UAACAGGGGGCCACAGCGGAAGCGUUCACGUCGCGGCCCCUGUCCGACUCUGGUGAAUCUGCGGAUUCCGCUGUGUAUCUC [A18G A35G A45C U48C A64G U69C A75G], the self-cleavage was 0.
Regarding UAACAGGGGGCCACAGCGGAAGCGUUCACGUCGCGGCCCCUGUCAGCUUCUGGAGAAUCCGAGAAUUCUGCUGUAUAUCUC [A18G A35G A47C U54A U60C C62A], the self-cleavage was found to be 0.17.
Regarding UAACAGGGGGCCACAGCGGAUGCGUACACGUCGCAGCCCCUGUCAGAUUCCGGUGAAUCUGCGAAUUCUGCUGUAUAUCUC [A18G A21U U26A U51C], the self-cleavage came out at 0.14.
The figure for UAACAGGGGGCCACAGCGGAUGCGUUCACGUCGCAGCCCCGGUCAGAUUCUGGUGAAUCUGCGAAGUCUGCUGUAUAUCUC [A18G A21U U41G U66G] is 0.09; for UAACAGGGGGCCACAGCGGAGGCGUUCACGUCGCAGCCCCUGUCAGAUUCGGGUGAAUCUGCGAUUUCUGCUGUAUAUCUC [A18G A21G U51G A65U] it is 0.09.
The figure for UAACAGGGGGCCACAGCGGUAGUGUUCACGUCGCAGCCCCUGUCAGAUUCUGGUGAAUCUGCGAAUUCUGCUGUAUAUCCC [A18G A20U C23U U80C] is 0.13; for UAACAGGGGGCCACAGCGGAGGCGUUCACGUCGCAGCCCCUGUCAGAUUCUGGUGAAUCUGCGAAUACUGCUGUAUAUCUC [A18G A21G U67A] it is 0.37; for UAACAGGGGGCCACAGCGGAAGCGUUCGCGUCGCAGCCCCUGUCAGAUUCUGGUGAAUCUGCGAAUUCUGCUGUGUAUCUC [A18G A28G A75G] it is 0.09.
In the case of UAACAGGGGGCCACAGCGGAAGCGUUCACGUCGCGGCCCCUGUCAGAUUCUGGUGAAUCUGCGAAUUCUGCAGUAUAUCUC [A18G A35G U72A] it was 0.81.
Turning to UAACAGGGGGCCACAGCGGAAGCGUUCGCGUCGCAGCCCCUGUCAGAUUCUGGGGAAUCUGCGAAUUCUGCUGAAUAUCUC [A18G A28G U54G U74A], the self-cleavage was 0.48.
The figure for UAACAGGGGGCCACAGCGGAGGCGUUCACGUCGCAGCCCCUGUCGGAUUCUGGUGAAUCUGCGAAUUCUGCUGUAUAUCUC [A18G A21G A45G] is 0.23; for UAACAGGGGGCCACAGCGGAAGCGUUCCCGUCGCAGCCCCUGUCAGAUUCUGGUGAAUCUGCGGAUUCUGCCGUAUAUCUC [A18G A28C A64G U72C] it is 0.13; for UAACAGGGGGCCACAGCGGAGGCGUCCGCGUCGCAGCCCCUGUCAGAUUCUGGUGAAUCUGCGAAUUCUGCUGUAUAUCUC [A18G A21G U26C A28G] it is 0.33.
In the case of UAACAGGGGGCCACAGCGGGAGCGUUCACGUCGCAGCCCCUGUCAGACUCUGGUGAAUCUGCGAAUUCUGCUGUAUAUCUC [A18G A20G U48C] it was 0.38.
In the case of UAACAGGGGGCCACAGCGGAGGCGUUCACGUCGCUGCCCCUGUCAGAUUCUGGUGAAUCUGCGAAUUCUGCCGUAUAUCCC [A18G A21G A35U U72C U80C] it was 0.09; in that of UAACAGGGGGCCACAGCGGGAGCGUUCACGUCGCAGCCCCUGUCAGACUCUGGUGAGUCUGCGAAUUCUGCUGUAUAUCUC [A18G A20G U48C A57G], 0.39.
UAACAGGGGGCCACAGCGGAAGCGUUCGCGUCGCAGCCCCUGUCAGAUUCUGGUGGAUCUGCGAAUUCCGCUGUAUGUCUC [A18G A28G A56G U69C A77G]: the self-cleavage amounted to 0.43.
In the case of UAACAGGGGGCCACAGCGGAAGCGUUCGCGUCGCAGCCCCUGUCAGAUUCUGGUGUAACUGCGAAUUCUGCUGUAUAUCUC [A18G A28G A56U U58A] it was 0.21; in that of UAACAGGGGGCCACAGCGGAAGCGUUCUCGUCGCAGCCCCUGUCAGAUUCUGGUGAAUCUGCGGAUUCUGCUGUAUAUCUC [A18G A28U A64G], 0.16.
